# Reference: the supplement of paper PMC4166925
# ± gives the standard deviation of the averaged measurements. Whole data set: some 33,000 sequences, median “E-score (dimensionless, -0.5 to 0.5)” near -0.046, cut for the highest 2% near 0.36. Some of the results follow.
# Test system: T1, SpTbr T-box DNA-binding domain (GST fusion)
# T1 sequence: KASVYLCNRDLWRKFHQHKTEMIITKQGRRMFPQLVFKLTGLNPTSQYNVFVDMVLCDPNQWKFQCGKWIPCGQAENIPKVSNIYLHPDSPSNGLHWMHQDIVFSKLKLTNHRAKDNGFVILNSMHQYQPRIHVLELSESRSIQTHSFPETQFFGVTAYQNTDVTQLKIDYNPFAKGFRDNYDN
# Assay: PBM E-score of 8-mer (E-score (dimensionless, -0.5 to 0.5)); Tbr is Tbrain of the sea star Patiria miniata (Pm) or the sea urchin Strongylocentrotus purpuratus (Sp); higher = stronger binding preference; most listed sequences are background and not binding sites
# Conditions: the construct has about 5 more residues each side
# Method in brief: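 Expression of GST-fused Tbr T-box DNA-binding domains, each holding the full T-box plus roughly five flanking residues, was carried out in BL21 E. coli at 20 °C, with purification by glutathione affinity chromatography. Universal Agilent arrays made double-stranded by primer extension were incubated with the protein at 200 nM in PBS (pH 7.5), then scanned and quantified. All ungapped 8-mers were scored from probe intensities, and each received an enrichment E-score from the Universal PBM Analysis Suite, averaged over duplicate arrays.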
row,Sequence,PBM E-score of 8-mer
1,CCAAAAAA,-0.105 ± 0.04
2,GCTCCCCC,-0.253 ± 0.042
3,CATACGTA,-0.0534 ± 0.065
4,GTGATCTA,-0.00772 ± 0.032
5,ACCACATA,0.12 ± 0.054
6,ACGCATCG,0.1 ± 0.02
7,GAACGTAC,-0.164 ± 0.079
8,ATAACTCA,-0.109 ± 0.031
9,CTCTTTAA,-0.226 ± 0.052
10,ACTCTTGA,-0.0835 ± 0.065
11,GGGCATAA,-0.0846 ± 0.036
12,TCAATTAA,-0.167 ± 0.1
13,AGGGTAAG,-0.3979 ± 0.0024
14,TAAACGCA,-0.0398 ± 0.064
15,AGATGAAT,-0.1194 ± 0.0011
16,TCCCACGA,0.0602 ± 0.014
17,CCGGACTA,-0.186 ± 0.041
18,GCTAGGTA,-0.182 ± 0.013
19,AAAAACGT,0.00213 ± 0.02
20,AGGCTTAC,-0.0946 ± 0.046
21,CGGCATAC,-0.293 ± 0.055
22,CACACGAC,0.2 ± 0.045
23,AAGTTGTG,0.311 ± 0.011
24,AACAAATA,0.0575 ± 0.067
25,ATTACACG,0.215 ± 0.035

row,Sequence,PBM E-score of 8-mer
1,GAACTTCA,-0.0825 ± 0.021
2,GGTGTCAA,0.4808 ± 0.0038
3,AGTGCCGA,0.103 ± 0.067
4,GAGATAGC,0.0812 ± 0.017
5,CAGAGTTC,-0.129 ± 0.032
6,CCCGCTAG,-0.0374 ± 0.13
7,GCTAAAAC,0.127 ± 0.022
8,CGCCTCAC,0.291 ± 0.026
9,CTAGCCTA,-0.0689 ± 0.022
10,CCTGACGA,0.0968 ± 0.077
11,CGCCCTTC,0.0465 ± 0.00081
12,AGGACGGG,-0.229 ± 0.039
13,TAGCGTAA,0.126 ± 0.021
14,CTCTGCGC,0.04597 ± 0.00011
15,AGTATTGC,-0.171 ± 0.047
16,GGTACAAC,-0.144 ± 0.015
17,GAATTTCA,0.056 ± 0.018
18,CTCATTGC,-0.186 ± 0.051
19,CCAGGCAC,-0.105 ± 0.066
20,CCCTCTCG,0.0788 ± 0.023
21,CAACCAAC,0.0184 ± 0.043
22,TTCGGAAA,-0.161 ± 0.05
23,ATTAGATA,-0.141 ± 0.046
24,AGCCTCCA,-0.0984 ± 0.049
25,TGAGGGCA,-0.126 ± 0.033

row,Sequence,PBM E-score of 8-mer
1,GGGTCAAC,-0.0066 ± 0.041
2,ACATCTAC,0.0904 ± 0.031
3,GGGTTCGA,-0.0443 ± 0.0019
4,GCAGTTAA,-0.0809 ± 0.016
5,TCCTACCA,-0.0283 ± 0.018
6,ATTCCTTG,0.115 ± 0.025
7,GAAGGAAA,-0.112 ± 0.051
8,AATATCCC,-0.155 ± 0.034
9,ATTAGGGC,-0.2202 ± 0.002
10,CAAATGCG,0.0347 ± 0.021
11,ATTGAACC,-0.169 ± 0.0091
12,AGCCGCAC,0.195 ± 0.061
13,AACGTCAG,-0.218 ± 0.022
14,CATCGTTC,-0.149 ± 0.11
15,AACGCTGT,0.042 ± 0.051
16,GATCCAGC,-0.175 ± 0.0069
17,ATTCTGGC,-0.104 ± 0.0095
18,AAAGAAAC,-0.184 ± 0.096
19,AAAAATCC,-0.0936 ± 0.053
20,ATGAGCAC,-0.14 ± 0.0091
21,ACGTGAAG,0.141 ± 0.041
22,CCACGTAC,-0.00917 ± 0.0088
23,CAGCGAGA,0.00192 ± 0.0009
24,AGCTATAA,-0.1776 ± 0.0012
25,CGGGGAAG,-0.206 ± 0.038

row,Sequence,PBM E-score of 8-mer
1,CCAAGACC,-0.22 ± 0.035
2,ATCGTTCA,-0.268 ± 0.011
3,AGATATAA,-0.047 ± 0.063
4,CTTTTTCA,-0.006 ± 0.059
5,CTAAAGAC,-0.122 ± 0.017
6,ACTGATTG,-0.0426 ± 0.025
7,AACCTATT,-0.0497 ± 0.063
8,AGGGAACG,-0.0114 ± 0.11
9,CCCTAAGA,-0.255 ± 0.045
10,ATCCACCC,0.0342 ± 0.026
11,TCAGTGAA,-0.00525 ± 0.015
12,ACCTGGCG,0.261 ± 0.028
13,CCATGATC,-0.148 ± 0.008
14,GGCCTAAC,-0.0491 ± 0.032
15,CAACTGCC,0.202 ± 0.01
16,GCTAGGGA,-0.0791 ± 0.072
17,TAACCGGA,-0.0629 ± 0.014
18,CACTACAC,0.153 ± 0.06
19,CGTTTGGA,-0.0006 ± 0.068
20,CTTTGGCC,-0.221 ± 0.031
21,CGGGCATA,-0.162 ± 0.07
22,AAGCTGCG,0.0852 ± 0.04
23,AATGAGAC,0.0249 ± 0.11
24,TCAACCAA,-0.0454 ± 0.0034
25,ACCTTGAT,0.044 ± 0.087

row,Sequence,PBM E-score of 8-mer
1,TGATGTAA,-0.155 ± 0.033
2,GTGGTTCA,-0.0511 ± 0.085
3,GAGTAAAC,-0.0192 ± 0.019
4,ATTACGTA,-0.174 ± 0.043
5,GTTAGAAC,0.00874 ± 0.049
6,AGCTCGGG,-0.278 ± 0.035
7,AATCAGTA,-0.167 ± 0.033
8,GCGATGTA,0.128 ± 0.011
9,AGTACCAG,-0.131 ± 0.05
10,AGTCTGTG,-0.0866 ± 0.072
11,GGACGTGA,0.222 ± 0.0016
12,ACCTCTGC,0.0995 ± 0.071
13,AATGCTTC,-0.0707 ± 0.0038
14,CAAACCTA,-0.166 ± 0.047
15,AGCATTCC,0.034 ± 0.0043
16,CTTTTTTA,-0.153 ± 0.054
17,CAACATAG,-0.0982 ± 0.027
18,ACCTACTA,0.17 ± 0.057
19,TTACCGAA,-0.114 ± 0.0049
20,TGATATCA,0.213 ± 0.018
21,ATTATGCG,-0.179 ± 0.0042
22,ATAGGATC,-0.234 ± 0.07
23,ACTGTGAG,0.269 ± 0.031
24,CTATCACA,0.347 ± 0.013
25,GCTTACCA,-0.03002 ± 0.00015

row,Sequence,PBM E-score of 8-mer
1,CCAGGGGG,-0.046 ± 0.0097
2,CCGGGGTA,-0.108 ± 0.12
3,AATGTGGG,0.192 ± 0.026
4,ACTGGCCC,-0.0963 ± 0.011
5,GCGAACAA,0.242 ± 0.034
6,GCGTCTCA,-0.0113 ± 0.071
7,ACCGCCCA,-0.00764 ± 0.031
8,AAGAGACA,-0.138 ± 0.03
9,AACAGGGC,0.0715 ± 0.005
10,CTCAAATC,0.0277 ± 0.0069
11,AACCAAAG,-0.217 ± 0.045
12,CCACGGCC,0.13 ± 0.012
13,CGATCGAA,-0.0274 ± 0.047
14,ATGGCGCA,0.00485 ± 0.003
15,AATCCGCG,0.14 ± 0.038
16,ACTATTTA,0.0802 ± 0.047
17,CCAGTACC,0.00782 ± 0.031
18,GAGTAGTA,-0.197 ± 0.015
19,CCTACCCG,-0.052 ± 0.034
20,CACATAGC,0.237 ± 0.045
21,AGCCGGGG,-0.319 ± 0.0068
22,AGCTATGC,-0.2219 ± 0.00032
23,CAATGGCA,0.119 ± 0.014
24,CATCTGAC,0.00663 ± 0.031
25,CTACTTAC,0.146 ± 0.039

row,Sequence,PBM E-score of 8-mer
1,AATTCTGT,-0.0279 ± 0.099
2,GCCGAACC,-0.284 ± 0.062
3,AACAATTA,0.0621 ± 0.089
4,GGTGGGAC,0.196 ± 0.02
5,AACTATCC,-0.173 ± 0.026
6,ATTACACC,0.358 ± 0.057
7,CTACGCAC,0.0937 ± 0.02
8,CGTTACAC,0.17 ± 0.0073
9,GCGTTTCA,-0.224 ± 0.049
10,GGTGTCCA,0.278 ± 0.027
11,ACTGAAAG,-0.0707 ± 0.025
12,CCCTTGGA,-0.165 ± 0.069
13,CCAGCGTA,-0.141 ± 0.064
14,CAAAGTCA,-0.111 ± 0.044
15,AGATGCAC,-0.167 ± 0.066
16,CTATTCGA,-0.172 ± 0.1
17,CTTGCCGC,-0.101 ± 0.037
18,GAAGCTTC,-0.13 ± 0.07
19,GAATTCAA,-0.183 ± 0.029
20,GGCATCCA,-0.204 ± 0.016
21,CCGAGGTA,-0.232 ± 0.016
22,GGTTAGCA,0.257 ± 0.034
